Experimental data: patent US20220073646A1 (Hoffmann-La Roche, published 2022)

Biological target: human 4-1BB on cells (human, UniProt Q07011 24-255)
Experiment: cell-based or functional assay

Row | EC50 of NFκB/luciferase activation, 4-1BB reporter HeLa with NIH/3T3-huFAP clone 19 [nM] | EC50 of NFκB/luciferase activation, 4-1BB reporter HeLa with WM-266-4 [nM] | Binder
1 | 0.3 | 0.4 | 4-1BB(11D5)/FAP(4B9) 2+1 (bispecific antibody, human IgG1, kappa) heavy 1: QVQLVQSGAEVKKPGSSVKVSCKASGGTFSSYAISWVRQAPGQGLEWMGGIIPIFGTANYAQKFQGRVTITADKSTSTAYMELSSLRSEDTAVYYCARSTLIYGYFDYWGQGTTVTVSSASTKGPSVFPLAPSSKSTSGGTAALGCLVKDYFPEPVTVSWNSGALTSGVHTFPAVLQSSGLYSLSSVVTVPSSSLGTQTYICNVNHKPSNTKVDKKV[human IgG1 Fc with changes left out]GGGGSGGGGSGGGGSGGGGSEVQLLESGGGLVQPGGSLRLSCAASGFTFSSYAMSWVRQAPGKGLEWVSAIIGSGASTYYADSVKGRFTISRDNSKNTLYLQMNSLRAEDTAVYYCAKGWFGGFNYWGQGTLVTVSS heavy 2: QVQLVQSGAEVKKPGSSVKVSCKASGGTFSSYAISWVRQAPGQGLEWMGGIIPIFGTANYAQKFQGRVTITADKSTSTAYMELSSLRSEDTAVYYCARSTLIYGYFDYWGQGTTVTVSSASTKGPSVFPLAPSSKSTSGGTAALGCLVKDYFPEPVTVSWNSGALTSGVHTFPAVLQSSGLYSLSSVVTVPSSSLGTQTYICNVNHKPSNTKVDKKVEPKSCDKTHTCPPCPAPEAAGGPSVFLFPPKPKDTLMISRTPEVTCVVVDVSHEDPEVKFNWYVDGVEVHNAKTKPREEQYNSTYRVVSVLTVLHQDWLNGKEYKCKVSNKALGAPIEKTISKAKGQPREPQVCTLPPSRDELTKNQVSLSCAVKGFYPSDIAVEWESNGQPENNYKTTPPVLDSDGSFFLVSKLTVDKSRWQQGNVFSCSVMHEALHNHYTQKSLSLSPGGGGGSGGGGSGGGGSGGGGSEIVLTQSPGTLSLSPGERATLSCRASQSVTSSYLAWYQQKPGQAPRLLINVGSRRATGIPDRFSGSGSGTDFTLTISRLEPEDFAVYYCQQGIMLPPTFGQGTKVEIK light: [about 100 residues left out][about 120 residues left out]
2 | 0.06 | 0.1 | 4-1BB(11D5)/FAP(4B9) 4+1 (bispecific antibody, human IgG1, kappa) heavy 1: QVQLVQSGAEVKKPGSSVKVSCKASGGTFSSYAISWVRQAPGQGLEWMGGIIPIFGTANYAQKFQGRVTITADKSTSTAYMELSSLRSEDTAVYYCARSTLIYGYFDYWGQGTTVTVSSASTKGPSVFPLAPSSKSTSGGTAALGCLVKDYFPEPVTVSWNSGALTSGVHTFPAVLQSSGLYSLSSVVTVPSSSLGTQTYICNVNHKPSNTKVDKKVEPKSCDGGGGSGGGGSQVQLVQSGAEVKKPGSSVKVSCKASGGTFSSYAISWVRQAPGQGLEWMGGIIPIFGTANYAQKFQGRVTITADKSTSTAYMELSSLRSEDTAVYYCARSTLIYGYFDYWGQGTTVTVSSASTKGPSVFPLAPSSKSTSGGTAALGCLVKDYFPEPVTVSWNSGALTSGVHTFPAVLQSSGLYSLSSVVTVPSSSLGTQTYICNVNHKPSNTKVDKKV[human IgG1 Fc with changes left out]GGGGSGGGGSGGGGSGGGGSEIVLTQSPGTLSLSPGERATLSCRASQSVTSSYLAWYQQKPGQAPRLLINVGSRRATGIPDRFSGSGSGTDFTLTISRLEPEDFAVYYCQQGIMLPPTFGQGTKVEIK heavy 2: QVQLVQSGAEVKKPGSSVKVSCKASGGTFSSYAISWVRQAPGQGLEWMGGIIPIFGTANYAQKFQGRVTITADKSTSTAYMELSSLRSEDTAVYYCARSTLIYGYFDYWGQGTTVTVSSASTKGPSVFPLAPSSKSTSGGTAALGCLVKDYFPEPVTVSWNSGALTSGVHTFPAVLQSSGLYSLSSVVTVPSSSLGTQTYICNVNHKPSNTKVDKKVEPKSCDGGGGSGGGGSQVQLVQSGAEVKKPGSSVKVSCKASGGTFSSYAISWVRQAPGQGLEWMGGIIPIFGTANYAQKFQGRVTITADKSTSTAYMELSSLRSEDTAVYYCARSTLIYGYFDYWGQGTTVTVSSASTKGPSVFPLAPSSKSTSGGTAALGCLVKDYFPEPVTVSWNSGALTSGVHTFPAVLQSSGLYSLSSVVTVPSSSLGTQTYICNVNHKPSNTKVDKKVEPKSCDKTHTCPPCPAPEAAGGPSVFLFPPKPKDTLMISRTPEVTCVVVDVSHEDPEVKFNWYVDGVEVHNAKTKPREEQYNSTYRVVSVLTVLHQDWLNGKEYKCKVSNKALGAPIEKTISKAKGQPREPQVCTLPPSRDELTKNQVSLSCAVKGFYPSDIAVEWESNGQPENNYKTTPPVLDSDGSFFLVSKLTVDKSRWQQGNVFSCSVMHEALHNHYTQKSLSLSPGGGGGSGGGGSGGGGSGGGGSEVQLLESGGGLVQPGGSLRLSCAASGFTFSSYAMSWVRQAPGKGLEWVSAIIGSGASTYYADSVKGRFTISRDNSKNTLYLQMNSLRAEDTAVYYCAKGWFGGFNYWGQGTLVTVSS light: [about 100 residues left out][about 120 residues left out]
